Data reported in PubChem BioAssay AID1347416 (National Center for Advancing Translational Sciences (NCATS), 2020).
The whole screen tested about 4,100 compounds, of which about 1,600 (39%) were called active. The shares of active, inactive and inconclusive entries below differ from those in the screen. Calls come from the whole dose curve; as a rule, active = well fitted inhibition curve with a large enough effect; inconclusive = small, poorly fitted or top-dose-only effect; inactive = no such curve, though single readings can be large or run the other way. Potencies beside an inconclusive call are fits to weak or partial responses and may not hold up.

Experiment: qHTS Validation assay for Inhibitors of Plasmodium falciparum Dd2 growth in vitro; note: nearly all actives have a fitted effect of over 70% in size
Settings: P. falciparum Dd2 in RBCs, SYBR Green growth, 72 h; activity change, negative = inhibition: at 28.7 µM (top of the series) unless noted
Outline: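 P. falciparum Dd2-infected red blood cells (2.5% hematocrit, 0.3% parasitemia) grown 72 h at 37 °C under 5% O2 with compounds in a titration, 29 uM to 0.5 nM final. Growth read as SYBR Green-1 fluorescence after ~16 h lysis; artesunate 300 nM as positive control.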
% is set by controls: 0 for no effect and ±100 for the full control effect; potency is the fitted concentration of half-maximal effect; tags give direction and shape of the fitted curve.

SMILES | activity change, negative = inhibition | Potency
O=C(Nc1ccc2c(c1)C(=O)N1CCC[C@H]1C(=O)N2)c1cc(-c2ccccc2)n[nH]1 | inactive: -18.8% | –
CCC(O)c1cc2n(n1)CCN(C(=O)CN1CCOc3ccccc3C1)C2 (centres undefined) | inactive: 8.38% | –
CCn1c(=O)c(=O)n(CC)c2cc(N3CCCCC3)c(NC(=O)c3ccc(OC)c(OC)c3)cc21 | – | inconclusive: 2.66 µM [inhibitor, full curve, poor fit]
CCOc1ccc(C2c3[nH]c4ccccc4c3CCN2C(=O)CSc2ccccc2)cc1 (centres undefined) | – | inconclusive: 21.1 µM [inhibitor, single point]
COc1ccc(CN(C)C2CCc3ccccc32)cc1 (centres undefined) | – | inconclusive: 24.3 µM [inhibitor, single point]
CC(C)N1CCC2(CC1)CN(C(=O)Cc1cccc(F)c1)Cc1ccccc1O2 | – | inconclusive: 15 µM [inhibitor, partial curve]
O=C(c1n[nH]c2c1CCCC2)N1CCC(n2cc(-c3nc(-c4ccccc4)no3)nn2)CC1 | – | inconclusive: 21.1 µM [inhibitor, single point]
CN(c1ccccc1)c1cc(=O)c2ccnc(-c3ccccc3O)c2o1 | inactive: -13.3% [at 43.1 µM] | –
Cc1cccc(C)c1-c1nc(C(=O)NCc2ccc(F)cc2)n2ccccc12 | inactive: -24.8% | –
CCN1CCN(Cc2ccc(NC(=O)c3ccc(C)c(NC(=O)c4csc(-c5ccncc5)n4)c3)cc2C(F)(F)F)CC1 | – | inconclusive: 5.96 µM [inhibitor, single point]
CCOC(=O)c1nc2cc3n(c(CC(C)C)c-2c1C)CC(C)=C3C | – | active: 7.5 µM
O=C(Cc1ccccc1)NCC1CN(Cc2cccc(Cl)c2)CC12CN(c1ccccc1)C2 (centres undefined) | inactive: 5.28% | –
O=C1NCc2ccccc2CC12CCCCN2Cc1ccc(Cl)s1 (centres undefined) | – | inconclusive: 26.3 µM [inhibitor, single point]
CCOC(=O)C1=C(O)/C(=C/c2cc(C)n(-c3ccccc3)c2C)N=C1C | inactive: -4.25% | –
Cc1ccc2nc(-c3ccc(O)c(O)c3)cn2c1 | – | active: 13.3 µM
COc1ccc(C(=O)N2CCC3(CC2)OC(=O)N(Cc2csc(C)n2)C3(C)c2ccccc2)cn1 (centres undefined) | – | inconclusive: 21.1 µM [inhibitor, single point]
COCCNC(=O)C1COC2(CCN(C(=O)c3ccc(Cl)cc3)CC2)N1C(=O)c1ccccc1C (centres undefined) | inactive: -12.4% | –
Cc1cccc(OCCSc2nc3ccc(NC(=O)c4cccs4)cc3s2)c1 | – | active: 9.44 µM
CCc1noc(-c2cn(C3CCN(C(=O)Cc4cccc(OC)c4)CC3)nn2)n1 | inactive: -1.95% | –
O=C(CN1CCN(C(=O)c2cc3c(s2)CN(C2CCCC2)C3)CC1)N1CCCC1 | – | inconclusive: 21.1 µM [inhibitor, single point]
Cc1cccc(NC(=O)Cn2cnc(S(=O)(=O)N3CCCC3)c2)c1C | inactive: -9.65% | –
CC(=O)Nc1ccc(NC2=Nc3ccccc3N3C2=Nc2c(c(C)nn2-c2ccccc2)C3c2ccccc2)cc1 (centres undefined) | – | active: 6.68 µM

SMILES | activity change, negative = inhibition | Potency
CCN(c1ccccc1)S(=O)(=O)c1ccc(NC(=O)c2cc(=O)c3cc(C)ccc3o2)cc1 | inactive: 44% | –
Cc1nn2c(c1-c1ccccc1OCc1ccccc1)N(Cc1ccccc1)CCC2 | – | active: 15.3 µM
COc1cccc(C(=O)N2CC(Oc3ccccc3-c3nc(-c4cnccn4)no3)C2)c1 | – | inconclusive: 21.1 µM [inhibitor, single point]
CCN(CC)S(=O)(=O)c1ccc2[nH]cc(C(=O)NCCN3CCCCCC3)c(=O)c2c1 | – | inconclusive: 9.44 µM [inhibitor, partial curve, poor fit]
O=C(NCCN1CCCCC1)c1ccc(-c2ccc(N3CCSCC3)nc2)cc1 | – | inconclusive: 21.1 µM [inhibitor, single point]
CC1=C[C@@H](CNCc2cccnc2)[C@H](C(C)C)C[C@H]1Cc1nnc(-c2ccc([N+](=O)[O-])cc2)o1 | – | active: 5.31 µM
O=C(N/N=C(\c1ccccc1)c1cccnc1)c1cccc(F)c1 | – | active: 4.22 µM
Cc1ccc(-n2c(C)cc(C(=O)OCC(=O)N(C)C3CCS(=O)(=O)C3)c2C)cc1 (centres undefined) | – | active: 4.73 µM
Cc1noc(C)c1[S+](=O)([O-])N1CCC2(CCN(Cc3cccs3)c3ccccc3O2)CC1 | – | inconclusive: 23.7 µM [inhibitor, single point]
COc1ccc(CN2C[C@@H](F)[C@@H](OCc3nc4ccc(C)cc4[nH]3)C2)cc1 | – | inconclusive: 30.6 µM [inhibitor, partial curve, poor fit]
COc1cccc(CNCC(O)(c2ccc(Cl)cc2)c2ccc(Cl)cc2)c1 | – | inconclusive: 1.5 µM [inhibitor, full curve, poor fit]
CCCN(CCC)CCCNc1ccc(C(=O)Nc2cccc(OC)c2)cc1[N+](=O)[O-] | – | active: 5.96 µM
O=c1cc(Nc2ccc3c(c2)OCCO3)[nH]c(=O)n1C1CCCCC1 | inactive: -0.988% | –
O=C(Nc1ccc([C@@H](O)[C@H]2COCC(=O)N2Cc2ccc(F)cc2)cc1)c1ccc2c(c1)OCO2 | inactive: -12.2% | –
COc1cccc(-c2nnnn2[C@H]2CO[C@H]3[C@@H]2OC[C@@H]3NS(=O)(=O)c2ccccc2C#N)c1 | – | inconclusive: 18.8 µM [inhibitor, single point]
COc1ccccc1CNC[C@@H]1C=C(C)[C@H](Cc2nc3c(C)cccc3[nH]2)C[C@H]1C(C)C | – | active: 9.68 µM
Cc1n[nH]c(C)c1Cc1ccc(C(=O)N2CCC(CCOc3ccc(F)cc3)C2)o1 (centres undefined) | – | inconclusive: 21.1 µM [inhibitor, single point]
Cc1cc(C)c(S(=O)(=O)Nc2cc(-c3cn4ccccc4n3)ccc2C)cc1C | inactive: 38.2% | –
CCOC(=O)c1sc(NC(=O)c2nc3ncccn3n2)c(C(=O)OC(C)C)c1C | – | inconclusive: 2.66 µM [inhibitor, partial curve]
O=C(Cn1cccc1-c1nc(-c2ccc3c(c2)OCO3)no1)Nc1ccc(Cl)cc1 | – | inconclusive: 21.1 µM [inhibitor, single point]
O=C(CN1CCN(S(=O)(=O)c2cccs2)CC1)NCC1CCCCC1 | inactive: 7.52% | –
Cc1noc(-c2ccn3c(CNC(=O)c4ccccc4Cl)nnc3c2)n1 | inactive: 10.4% | –
